Laboratory results as given in the RNAGym collection of RNA variant scans (doi:10.7554/elife.90254).
Read counts are not given, so values of variants with three or more changes are uncertain.

B1: LINE1-mini (parent)
chain: GGCAGAGCUCAACACAGCGUGGCAAAGUGGCUGUGGCUAGACUGCC

Variants of: B1
Experiment: self-cleavage, relative activity (ratio to wild type); higher = more cleavage; in vitro, sequencing; the parent is a self-cleaving ribozyme

Variant | self-cleavage
GGCAAAGCUCAACAAGGCGUGGCAAAGUGGCUGUGGCUAGACUGCC [G5A C15A A16G] | 0.07
GGCAAAGCUCAAGACAGCGUGGUAAAGUGGCUGUGGCUAGACUGCC [G5A C13G C23U] | 0.03
GGCAAAGCUCAACAUAGCGUGGCAAAUUGGCUGUGGCUAGACCGCC [G5A C15U G27U U43C] | 0.11
GGCAAAGCUCAAAACAGCGUGGCAAAGUGGCUGUGGCGAGACUGCC [G5A C13A U38G] | 0
GGCAAAGCUCAAAACAGCGUCGCAAAGUGGCUGUGGCUGGACUGCC [G5A C13A G21C A39G] | 0.06
GGCAAAGCUCAACAGAGCGUGGCAAAGUGGCUGUGGCUAGACUUCC [G5A C15G G44U] | 0.03
GGCAAAGCUCAAUACAGCGUCGCAAAGUGGCUGUGGCUAGACUGCG [G5A C13U G21C C46G] | 0.03
GGCAAAGCUCAAUAGAGCGUGGCAAAGUGUCUGUGGCUAGACUGCC [G5A C13U C15G G30U] | 0.03
GGCAAAGCUCAAGACAGCGUGGCAAGGUAGUUGUGGCUAGACUGCC [G5A C13G A26G G29A C31U] | 0.04
GGCAAAGCUCAAUACAGCGUGGCAAAGCGGCUGUGGCUAGAUUGCC [G5A C13U U28C C42U] | 0.08
GGCAAAGCUCAACAUAGCGUGGGAAAAUGGCUGUGGCUAGACUGCC [G5A C15U C23G G27A] | 0.04
GGCAAAGCUCAAGACGGAGUGGCAAUGUGGCUGUGGCUAGAAUGCG [G5A C13G A16G C18A A26U C42A C46G] | 0.01
GGCAAAGCUCAAAGCAGCGUGGCAAAGUGGCUGUUGCUAGACUGCC [G5A C13A A14G G35U] | 0.07
GGCAAAGCUCAAUUCAGCGUGGCAAAGUGGCUGUGGCUAAACUGAC [G5A C13U A14U G40A C45A] | 0.04
GGCAAAGCUCAAUACAGCCUGGCCAAGUGGCUGUGGCUAGACUGCC [G5A C13U G19C A24C] | 0.07
GGCAAAGCUCAACACAGAGUGGCAAAGUGGUUGUUGCUAGACUGCU [G5A C18A C31U G35U C46U] | 0.01
GGCAAAGCUCAAGACAGCGAGGCAAAGUGGCUGUGGCUAGACUGCC [G5A C13G U20A] | 0.26
GGCAAAGCUCAAGACAGUGUGGCAACGUAGCUGUGGCUAGUCUGCC [G5A C13G C18U A26C G29A A41U] | 0.03
GGCAAAGCUCAACAGAGCGAGGCAAAGUGUCCGUGGCUAGACUGCC [G5A C15G U20A G30U U32C] | 0.01

Variant | self-cleavage
GGCAAAGCUCAAAACAGAGUGGCAAAGUGGCUGUGGCUAAACUGCC [G5A C13A C18A G40A] | 0.03
GGCAAAGCUCAAAACAGCGUGGCAAAGUGGCUGUGGCUAUACUGCC [G5A C13A G40U] | 0.05
GGCAAAGCUCAAAAAAGCGUGGCAAAGUGGCUCUGGCUAGAUCGCC [G5A C13A C15A G33C C42U U43C] | 0.03
GGCAAAGCUCAAAGCAGCAUGGCAAAGUGGCUGUGGCUAGACUGCC [G5A C13A A14G G19A] | 0.09
GGCAAAGCUCAACAUAGCGUGUCAAAGUGGCUGUGGCUAGACUGCC [G5A C15U G22U] | 0.16
GGCAAAGCUCAACAAAGCGUGGCAAACUGGCUGUGGGUAGACUACC [G5A C15A G27C C37G G44A] | 0.05
GGCAAAGCUCAACAUAGCUUGGUAAAGUGGCUGUGGGUAGACUGCC [G5A C15U G19U C23U C37G] | 0.02
GGCAAAGCUCAAAAGAGCGUGGCAAAGUGGCUGUGGCUAGACUGCC [G5A C13A C15G] | 0.1
GGCAAAGCUCAACAGAGCGUCGCAAAGUGGCGGUGGCUAGACUGCC [G5A C15G G21C U32G] | 0.06
GGCAAAGCUCAAAGCAGCGUGGCAUAGUGGCUGUGGCUAGACUGCC [G5A C13A A14G A25U] | 0.22
GGCAAAGCUCAACAAAGCGGGGCAAAGUGCCUGUAGCUAGACUGCC [G5A C15A U20G G30C G35A] | 0.01
GGCAAAGCUCAACAAAACGUGGCGAAGUUGCUGUGGCUAGAUUGCC [G5A C15A G17A A24G G29U C42U] | 0.03
GGCAAAGCUCAAAACAGCGUGGCAACGUGGCCGUGGCUAGACUGCC [G5A C13A A26C U32C] | 0.16
GGCAAAGCUCAACAAAGCGUGGCAGAGUGGCUGUGGCUAGAGUACC [G5A C15A A25G C42G G44A] | 0.03
GGCAAAGCUCAACAUAGCGUGGCAAAGUGGCUGAGGCUAGACUGCC [G5A C15U U34A] | 0.25
GGCAAAGCUCAACAAUGAGUGGCAUAGUGGCUGUCGCUAGACUGCC [G5A C15A A16U C18A A25U G35C] | 0.02
GGCAAAGCUCAACAAAUUGAGGCAAAGUGGCUGUGGAUAGACUGCC [G5A C15A G17U C18U U20A C37A] | 0.02
GGCAAAGCUCAACAAAGCGUGGCAAAGUGGCAGUGGCUAGACUGCC [G5A C15A U32A] | 0.05
GGCAAAGCUCAAUACAGCGUGGCGAAGUGGCUGUGGCUAGACUGCC [G5A C13U A24G] | 0.15

Variant | self-cleavage
GGCAAAGCUCAAAACAGCGUGGCAAAGUAGCUGUGGCUAGACUGCC [G5A C13A G29A] | 0.07
GGCAAAGCUCAACACAGAGUGGCAAAGUGGCUGUGGCAAGACUGCC [G5A C18A U38A] | 0.11
GGCAAAGCUCAAUACAGCGUGGCAAAGUGGCUGUGGCUAGACUACC [G5A C13U G44A] | 0.04
GGCAAAGCUCAACAUAGCGUCGCAAAGUGGCAGUGGCUAGAAUGCC [G5A C15U G21C U32A C42A] | 0.01
GGCAAAGCUCAACACAGGGUGGCAUAUUGGCUGUGGCUAGACUGCC [G5A C18G A25U G27U] | 0.08
GGCAAAGCUCAACACAGAGUGGCAAAGUGUCUAUGGCUAGACUGCC [G5A C18A G30U G33A] | 0.05
GGCAAAGCUCAAUACAGCGUGGCAACGUAGCUGUGGUUAGACUGCC [G5A C13U A26C G29A C37U] | 0.04
GGCAAAGCUCAAGACAGUGUGGAAAAGUGGCUGUGGCUAGACUGCC [G5A C13G C18U C23A] | 0.2
GGCAAAGCUCAAGACAGCGUGGCAAAAUGGCUGUGGCUAGCCUGCC [G5A C13G G27A A41C] | 0.05
GGCAAAGCUCAAAACCGCGUGGCAAAGUGGCUGUGGCUAGACCGCC [G5A C13A A16C U43C] | 0.03
GGCAAAGCUCAACAAAGCGUGGCAAAGGGGCUGUGGCUAGACUGUC [G5A C15A U28G C45U] | 0.02
GGCAAAGCUCAACAUAGCGUGGCAAAGUGGCUGUGGCUAGAGUGCC [G5A C15U C42G] | 0.04
GGCAAAGCUCAACAGAGCGUGGCAAAGUGGCUGUGGCUAGACUGUC [G5A C15G C45U] | 0.08
GGCAAAGCUCAACAAAGCGUGGCAAAGUGGCUGUGGCUAGGCUGCC [G5A C15A A41G] | 0.03
GGCAAAGCUCAAUACAUCGUAGCAAAGUGGCUGUGGCUAGACUCCC [G5A C13U G17U G21A G44C] | 0.05
GGCAAAGCUCAAAAAAGCGUGGAAAAGUGGCUCUGGCUAUACUGCC [G5A C13A C15A C23A G33C G40U] | 0.28
GGCAAAGCUCAAAACAACGUGGAAAAGUGCCUGUGGCUAGUCUCCC [G5A C13A G17A C23A G30C A41U G44C] | 0.01
GGCAAAGCUCAAUACAGCGUAGCAACGUGGCUGUGGCUAGACUGCC [G5A C13U G21A A26C] | 0.14
